Laboratory results: paper PMC9411157
These are yes or no findings as the source states them, for the method shown. Binding seen in cells or lysates may run through a third protein. Some binding calls cover weakened binding; strength is not graded here. Tags and fused reporters may be left off the sequences shown. Each block holds one binder with its values, some of them ahead of it.

Key:
[1] = biological target: T1, Trq2-huCldn2^ECL10a (Turquoise2-tagged human claudin-2 with both extracellular loops replaced by those of claudin-10a) (human) (UniProt P57739); experiment: FRET or BRET; spectral FRET in living HEK293 cells co-transfected with pTrq2-Cldn (donor) and pYFP-Cldn (acceptor); ROIs at the contact of two neighbouring cells expressing both claudins; two-photon excitation 810 nm; FRET ratio = YFP emission (532 nm) / Trq2 emission (468 nm); plasmid ratio 1:1 for Trq2-Cldn3, 1:5 for Trq2-Cldn2 and Trq2-Cldn2^ECL10a
T1 sequence: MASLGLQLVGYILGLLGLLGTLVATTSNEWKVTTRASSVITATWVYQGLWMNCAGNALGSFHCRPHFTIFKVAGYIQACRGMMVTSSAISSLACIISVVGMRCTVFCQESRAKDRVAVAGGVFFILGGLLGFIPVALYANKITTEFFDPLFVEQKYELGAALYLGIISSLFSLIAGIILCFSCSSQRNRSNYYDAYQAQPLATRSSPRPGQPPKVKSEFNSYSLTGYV

[2] = biological target: Trq2-huCldn3 (Turquoise2-tagged human claudin-3) (human) (UniProt O15551); experiment: as above
[3] = biological target: T2, Trq2-huCldn2 (Turquoise2-tagged human claudin-2) (human), P57739; experiment: as above; details: remark: other sources report otherwise
T2 chain: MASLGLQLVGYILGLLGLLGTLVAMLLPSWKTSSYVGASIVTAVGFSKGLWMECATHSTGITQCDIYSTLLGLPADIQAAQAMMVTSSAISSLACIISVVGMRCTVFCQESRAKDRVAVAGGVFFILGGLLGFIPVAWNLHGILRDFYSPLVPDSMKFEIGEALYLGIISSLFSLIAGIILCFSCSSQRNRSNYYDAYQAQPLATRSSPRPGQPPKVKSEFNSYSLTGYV

[4] = biological target: T3, Trq2-huCldn2 (Turquoise2-tagged human claudin-2) (human) (UniProt P57739); experiment: as above
T3 sequence: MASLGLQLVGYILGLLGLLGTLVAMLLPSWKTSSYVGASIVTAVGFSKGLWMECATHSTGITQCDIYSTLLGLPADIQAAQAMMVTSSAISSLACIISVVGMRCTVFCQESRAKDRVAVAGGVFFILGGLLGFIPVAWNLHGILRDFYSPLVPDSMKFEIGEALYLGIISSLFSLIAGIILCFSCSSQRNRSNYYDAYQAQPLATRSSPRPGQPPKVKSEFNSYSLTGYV

[5] = biological target: T3, Trq2-huCldn2 (Turquoise2-tagged human claudin-2) (human); experiment: FRET or BRET; spectral FRET in living COS-7 cells co-transfected with pTrq2-Cldn (donor) and pYFP-Cldn (acceptor), plasmid ratio 1:5; excitation 405 nm; FRET ratio = YFP emission (530 nm) / Trq2 emission (478 nm)
[6] = biological target: Trq2-huCldn3 (Turquoise2-tagged human claudin-3) (human) (UniProt O15551); experiment: as above
[7] = biological target: T4, Trq2-huCldn3 (Turquoise2-tagged human claudin-3) (human), O15551; experiment: FRET or BRET; spectral FRET in living HEK293 cells co-transfected with pTrq2-Cldn (donor) and pYFP-Cldn (acceptor); ROIs at the contact of two neighbouring cells expressing both claudins; two-photon excitation 810 nm; FRET ratio = YFP emission (532 nm) / Trq2 emission (468 nm); plasmid ratio 1:1 for Trq2-Cldn3, 1:5 for Trq2-Cldn2 and Trq2-Cldn2^ECL10a; details: remark: other sources report otherwise
T4 chain: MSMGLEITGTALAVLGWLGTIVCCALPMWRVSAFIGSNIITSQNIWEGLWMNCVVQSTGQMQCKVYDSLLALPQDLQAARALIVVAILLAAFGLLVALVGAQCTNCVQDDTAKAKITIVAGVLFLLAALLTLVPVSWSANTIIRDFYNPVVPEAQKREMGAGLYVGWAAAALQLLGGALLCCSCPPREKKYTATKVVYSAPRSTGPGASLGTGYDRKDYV

binding [4]: no binding | binding [5]: no binding
B3: YFP-huCldn10a (YFP-tagged human claudin-10a) (protein, UniProt P78369-2 1-226)
chain: MSRAQIWALVSGVGGFGALVAATTSNEWKVTTRASSVITATWVYQGLWMNCAGNALGSFHCRPHFTIFKVAGYIQACRGLMIAAVSLGFFGSIFALFGMKCTKVGGSDKAKAKIACLAGIVFILSGLCSMTGCSLYANKITTEFFDPLFVEQKYELGAALFIGWAGASLCIIGGVIFCFSISDNNKTPRYTYNGATSVMSSRTKYHGGEDFKTTNPSKQFDKNAYV

binding [2]: no binding | binding [6]: no binding
B4: YFP-huCldn15 (YFP-tagged human claudin-15) (protein, UniProt P56746 1-228)
chain: MSMAVETFGFFMATVGLLMLGVTLPNSYWRVSTVHGNVITTNTIFENLWFSCATDSLGVYNCWEFPSMLALSGYIQACRALMITAILLGFLGLLLGIAGLRCTNIGGLELSRKAKLAATAGALHILAGICGMVAISWYAFNITRDFFDPLYPGTKYELGPALYLGWSASLISILGGLCLCSACCCGSDEDPAASARRPYQAPVSVMPVATSDQEGDSSFGKYGRNAYV

More lines, now with the values behind:

B1: YFP-huCldn2 (YFP-tagged human claudin-2) (protein, UniProt P57739 1-230)
chain: MASLGLQLVGYILGLLGLLGTLVAMLLPSWKTSSYVGASIVTAVGFSKGLWMECATHSTGITQCDIYSTLLGLPADIQAAQAMMVTSSAISSLACIISVVGMRCTVFCQESRAKDRVAVAGGVFFILGGLLGFIPVAWNLHGILRDFYSPLVPDSMKFEIGEALYLGIISSLFSLIAGIILCFSCSSQRNRSNYYDAYQAQPLATRSSPRPGQPPKVKSEFNSYSLTGYV
binding [1]: binds | binding [2]: binds weakly

B2: Trq2-huCldn2 (Turquoise2-tagged human claudin-2), P57739 1-230 (protein)
chain: MASLGLQLVGYILGLLGLLGTLVAMLLPSWKTSSYVGASIVTAVGFSKGLWMECATHSTGITQCDIYSTLLGLPADIQAAQAMMVTSSAISSLACIISVVGMRCTVFCQESRAKDRVAVAGGVFFILGGLLGFIPVAWNLHGILRDFYSPLVPDSMKFEIGEALYLGIISSLFSLIAGIILCFSCSSQRNRSNYYDAYQAQPLATRSSPRPGQPPKVKSEFNSYSLTGYV
binding [3]: binds

B5: Trq2-huCldn3 (Turquoise2-tagged human claudin-3), O15551 1-220 (protein)
chain: MSMGLEITGTALAVLGWLGTIVCCALPMWRVSAFIGSNIITSQNIWEGLWMNCVVQSTGQMQCKVYDSLLALPQDLQAARALIVVAILLAAFGLLVALVGAQCTNCVQDDTAKAKITIVAGVLFLLAALLTLVPVSWSANTIIRDFYNPVVPEAQKREMGAGLYVGWAAAALQLLGGALLCCSCPPREKKYTATKVVYSAPRSTGPGASLGTGYDRKDYV
binding [7]: binds
